In the supplement of paper PMC4604168 (melanoma cell lines):
The other results are listed elsewhere or left out. Single values are uncertain, as repeats are few or missing.

These compounds were tested on UACC257 (assay: cell count relative to DMSO control; melanoma cells; higher = more viable cells). Settings: library dose: low library concentration; 72 h.
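Further: cell number obtained by counting DAPI-stained nuclei in high-throughput microscope images with image analysis software, screen run in 1,536-well plates.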

With `Nc1nc(F)nc2c1ncn2[C@@H]1O[C@H](CO)[C@@H](O)[C@@H]1O` [fludarabine] + CN(C)S(=O)(=O)c1ccc2c(c1)/C(=C/c1cc3c([nH]1)CCCC3)C(=O)N2 [SU6656] (first compound 0.2 µM, partner dose 0.4 µM) as the compound, how does the cell count read?
Its cell count is 94.4%.

Which cell count does the source give for `Nc1nc(F)nc2c1ncn2[C@@H]1O[C@H](CO)[C@@H](O)[C@@H]1O` [fludarabine] + Cc1ccc(NC(=O)c2cccc(N(C)C)c2)cc1NC(=O)c1ccc(O)cc1 [ZM336372] (first compound 0.2 µM, partner dose 2 µM) here?
Its cell count is 87.7%.

For `Nc1ncn([C@H]2C[C@H](O)[C@@H](CO)O2)c(=O)n1` [decitabine] + c1cc(-c2cnn3cc(-c4ccc(OCCN5CCCCC5)cc4)cnc23)ccn1 [Dorsomorphin] (first compound 0.1 µM, partner dose 0.4 µM), which cell count is on record?
Its cell count is 123%.

Which cell count does the source give for `Nc1nc(F)nc2c1ncn2[C@@H]1O[C@H](CO)[C@@H](O)[C@@H]1O` [fludarabine] + COc1cc2ncnc(Nc3ccc(Oc4ccccc4)cc3)c2cc1OC [SrcI1] (first compound 0.2 µM, partner dose 2 µM) here?
Its cell count is 94.9%.

For `Nc1ccn([C@@H]2O[C@H](CO)[C@@H](O)C2(F)F)c(=O)n1` [gemcitabine] + O=C(Nc1cccc(Cl)c1)Nc1ncc(CCNc2ncnc3ccsc23)s1 [SNS314] (first compound 0.0004 µM, partner dose 0.0008 µM), which cell count is on record?
Its cell count is 93.7%.

`Nc1nc(F)nc2c1ncn2[C@@H]1O[C@H](CO)[C@@H](O)[C@@H]1O` [fludarabine] + COc1cc(N2CCC(N3CCN(C)CC3)CC2)ccc1Nc1ncc(Cl)c(Nc2ccccc2S(=O)(=O)C(C)C)n1 [NVP-TAE684] (first compound 0.2 µM, partner dose 0.08 µM) was tested. Which cell count did it give?
Its cell count is 60.6%.

`CC(=O)c1c(C)c2cnc(Nc3ccc(N4CCNCC4)cn3)nc2n(C2CCCC2)c1=O` [palbociclib] + C=CCn1c(=O)c2cnc(Nc3ccc(N4CCN(C)CC4)cc3)nc2n1-c1cccc(C(C)(C)O)n1 [MK1775] (first compound 0.04 µM, partner dose 0.02 µM) was tested. Which cell count did it give?
Its cell count is 62.5%.

These compounds were tested on UACC62 in the same assay as above. Settings: library dose: low library concentration; 72 h.

For `Nc1ccn([C@@H]2O[C@H](CO)[C@@H](O)C2(F)F)c(=O)n1` [gemcitabine] + O=C1NC(=O)/C(=C/c2ccc(-c3ccc(F)cc3O)o2)S1 [AS252424] (first compound 0.0004 µM, partner dose 1 µM), which cell count is on record?
The cell count was 94%.

`Nc1ccn([C@@H]2O[C@H](CO)[C@@H](O)C2(F)F)c(=O)n1` [gemcitabine] + CC1(C)NC(=O)N(c2ccc([N+](=O)[O-])c(C(F)(F)F)c2)C1=O [nilutamide] (first compound 0.0004 µM, partner dose 1 µM) was tested. Which cell count did it give?
The cell count was 93.2%.

For `Nc1ncn([C@H]2C[C@H](O)[C@@H](CO)O2)c(=O)n1` [decitabine] + NCC(=O)Nc1ccc(-n2nc(C(F)(F)F)cc2-c2ccc3c(ccc4ccccc43)c2)cc1 [OSU03012] (first compound 0.1 µM, partner dose 1 µM), which cell count is on record?
Its cell count is 76.8%.

`Nc1ccn([C@@H]2O[C@H](CO)[C@@H](O)C2(F)F)c(=O)n1` [gemcitabine] + CC(C)CCN1c2nc(Nc3cc(F)c(O)c(F)c3)ncc2N(C)C(=O)C1C [BID1870] (first compound 0.0004 µM, partner dose 0.2 µM) was tested. Which cell count did it give?
The cell count was 87.9%.

With `CC(=O)c1c(C)c2cnc(Nc3ccc(N4CCNCC4)cn3)nc2n(C2CCCC2)c1=O` [palbociclib] + COc1cc2c(Oc3ccc4[nH]c(C)cc4c3F)ncnc2cc1OCCCN1CCCC1 [cediranib] (first compound 0.04 µM, partner dose 0.4 µM) as the compound, how does the cell count read?
The cell count was 80.7%.

`Nc1nc(F)nc2c1ncn2[C@@H]1O[C@H](CO)[C@@H](O)[C@@H]1O` [fludarabine] + O=C(O)C(=O)Nc1sc2c(c1C(=O)O)CCNC2 [TCS401] (first compound 0.2 µM, partner dose 1.66667 µM) was tested. Which cell count did it give?
The cell count was 77.6%.

For `CC(=O)c1c(C)c2cnc(Nc3ccc(N4CCNCC4)cn3)nc2n(C2CCCC2)c1=O` [palbociclib] + Cn1cc(/C=C2\C(=O)Nc3cccnc32)c2ccccc21 [GW441756] (first compound 0.04 µM, partner dose 0.4 µM), which cell count is on record?
The cell count was 76.8%.

With `Nc1ccn([C@@H]2O[C@H](CO)[C@@H](O)C2(F)F)c(=O)n1` [gemcitabine] + Oc1nc(-c2ccc(C(F)(F)F)cc2)nc2c1CSCC2 [XAV939] (first compound 0.0004 µM, partner dose 2 µM) as the compound, how does the cell count read?
The cell count was 112%.

With `CC(=O)O[C@@]12CO[C@@H]1C[C@H](O)[C@@]1(C)C(=O)[C@H](O)C3=C(C)[C@@H](OC(=O)[C@H](O)[C@@H](NC(=O)OC(C)(C)C)c4ccccc4)C[C@@](O)([C@@H](OC(=O)c4ccccc4)[C@H]21)C3(C)C` [Docetaxel] + Cn1c(=O)n(-c2ccc(C(C)(C)C#N)cc2)c2c3cc(-c4cnc5ccccc5c4)ccc3ncc21 [NVP-BEZ235] (first compound 0.0001 µM, partner dose 0.004 µM) as the compound, how does the cell count read?
The cell count was 33.4%.

How did the cell count turn out when `CC(=O)c1c(C)c2cnc(Nc3ccc(N4CCNCC4)cn3)nc2n(C2CCCC2)c1=O` [palbociclib] + Cc1cc([N+](=O)[O-])ccc1NS(=O)(=O)c1cc(Cl)ccc1Cl [FH535] (first compound 0.04 µM, partner dose 1 µM) was run?
The cell count was 71.4%.

Which cell count does the source give for `CC(=O)O[C@@]12CO[C@@H]1C[C@H](O)[C@@]1(C)C(=O)[C@H](O)C3=C(C)[C@@H](OC(=O)[C@H](O)[C@@H](NC(=O)OC(C)(C)C)c4ccccc4)C[C@@](O)([C@@H](OC(=O)c4ccccc4)[C@H]21)C3(C)C` [Docetaxel] + N#Cc1c(O)c2c(-c3ccc(-c4ccccc4O)cc3)csc2[nH]c1=O [A769662] (first compound 0.0001 µM, partner dose 2 µM) here?
The cell count was 41.9%.

With `CC(=O)O[C@@]12CO[C@@H]1C[C@H](O)[C@@]1(C)C(=O)[C@H](O)C3=C(C)[C@@H](OC(=O)[C@H](O)[C@@H](NC(=O)OC(C)(C)C)c4ccccc4)C[C@@](O)([C@@H](OC(=O)c4ccccc4)[C@H]21)C3(C)C` [Docetaxel] + CN(C)S(=O)(=O)c1ccc2c(c1)/C(=C/c1cc3c([nH]1)CCCC3)C(=O)N2 [SU6656] (first compound 0.0001 µM, partner dose 0.4 µM) as the compound, how does the cell count read?
Its cell count is 47.4%.

For `Nc1ncn([C@H]2C[C@H](O)[C@@H](CO)O2)c(=O)n1` [decitabine] + CN(NC(=O)CC(=O)NN(C)C(=S)c1ccccc1)C(=S)c1ccccc1 [STA4783] (first compound 0.1 µM, partner dose 0.006 µM), which cell count is on record?
Its cell count is 77.6%.

Which cell count does the source give for `CC(=O)c1c(C)c2cnc(Nc3ccc(N4CCNCC4)cn3)nc2n(C2CCCC2)c1=O` [palbociclib] + NCC(=O)Nc1ccc(-n2nc(C(F)(F)F)cc2-c2ccc3c(ccc4ccccc43)c2)cc1 [OSU03012] (first compound 0.04 µM, partner dose 1 µM) here?
Its cell count is 78.7%.

Which cell count does the source give for `CC(=O)O[C@@]12CO[C@@H]1C[C@H](O)[C@@]1(C)C(=O)[C@H](O)C3=C(C)[C@@H](OC(=O)[C@H](O)[C@@H](NC(=O)OC(C)(C)C)c4ccccc4)C[C@@](O)([C@@H](OC(=O)c4ccccc4)[C@H]21)C3(C)C` [Docetaxel] + CC(C)CCN1c2nc(Nc3cc(F)c(O)c(F)c3)ncc2N(C)C(=O)C1C [BID1870] (first compound 0.0001 µM, partner dose 0.2 µM) here?
The cell count was 41.3%.

How did the cell count turn out when `CC(=O)c1c(C)c2cnc(Nc3ccc(N4CCNCC4)cn3)nc2n(C2CCCC2)c1=O` [palbociclib] + O=C(CCCCCCC(=O)Nc1ccccc1)NO [vorinostat] (first compound 0.04 µM, partner dose 0.08 µM) was run?
The cell count was 65%.

For `CC(=O)c1c(C)c2cnc(Nc3ccc(N4CCNCC4)cn3)nc2n(C2CCCC2)c1=O` [palbociclib] + CC1(C)NC(=O)N(c2ccc([N+](=O)[O-])c(C(F)(F)F)c2)C1=O [nilutamide] (first compound 0.04 µM, partner dose 1 µM), which cell count is on record?
Its cell count is 68.9%.

For `Nc1ncn([C@H]2C[C@H](O)[C@@H](CO)O2)c(=O)n1` [decitabine] + O=C(O)c1ccc(-c2c[nH]c3ncc(-c4ccccc4)cc23)cc1C1CCCC1 [GSK650394] (first compound 0.1 µM, partner dose 0.16 µM), which cell count is on record?
The cell count was 76.7%.

With `CC(=O)O[C@@]12CO[C@@H]1C[C@H](O)[C@@]1(C)C(=O)[C@H](O)C3=C(C)[C@@H](OC(=O)[C@H](O)[C@@H](NC(=O)OC(C)(C)C)c4ccccc4)C[C@@](O)([C@@H](OC(=O)c4ccccc4)[C@H]21)C3(C)C` [Docetaxel] + C=CCn1c(=O)c2cnc(Nc3ccc(N4CCN(C)CC4)cc3)nc2n1-c1cccc(C(C)(C)O)n1 [MK1775] (first compound 0.0001 µM, partner dose 0.02 µM) as the compound, how does the cell count read?
Its cell count is 42.3%.

`Nc1nc(F)nc2c1ncn2[C@@H]1O[C@H](CO)[C@@H](O)[C@@H]1O` [fludarabine] + Cc1cc([N+](=O)[O-])ccc1NS(=O)(=O)c1cc(Cl)ccc1Cl [FH535] (first compound 0.2 µM, partner dose 1 µM) was tested. Which cell count did it give?
Its cell count is 76.9%.

How did the cell count turn out when `CC(=O)O[C@@]12CO[C@@H]1C[C@H](O)[C@@]1(C)C(=O)[C@H](O)C3=C(C)[C@@H](OC(=O)[C@H](O)[C@@H](NC(=O)OC(C)(C)C)c4ccccc4)C[C@@](O)([C@@H](OC(=O)c4ccccc4)[C@H]21)C3(C)C` [Docetaxel] + O=S(=O)(c1ccccc1)N(CC(F)(F)F)c1ccc(C(O)(C(F)(F)F)C(F)(F)F)cc1 [T0901317] (first compound 0.0001 µM, partner dose 1.4 µM) was run?
The cell count was 38.2%.
